About 230 (0.21%) of roughly 110,000 compounds showed an effect of 50% or more. Some of the results follow.
molecular target: DPAP1 (Plasmodium falciparum, UniProt Q8IIJ9); assay: primary screen, percent inhibition; read by cleavage of a fluorogenic dipeptide substrate; higher = more effect of the substance; set-up: species or system P. falciparum D10 trophozoite lysates; single well
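Also: 30 min substrate incubation versus DMSO and 10 µM JCP410 controls.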

Sequence of DPAP1 (Q8IIJ9 whole entry, looked up): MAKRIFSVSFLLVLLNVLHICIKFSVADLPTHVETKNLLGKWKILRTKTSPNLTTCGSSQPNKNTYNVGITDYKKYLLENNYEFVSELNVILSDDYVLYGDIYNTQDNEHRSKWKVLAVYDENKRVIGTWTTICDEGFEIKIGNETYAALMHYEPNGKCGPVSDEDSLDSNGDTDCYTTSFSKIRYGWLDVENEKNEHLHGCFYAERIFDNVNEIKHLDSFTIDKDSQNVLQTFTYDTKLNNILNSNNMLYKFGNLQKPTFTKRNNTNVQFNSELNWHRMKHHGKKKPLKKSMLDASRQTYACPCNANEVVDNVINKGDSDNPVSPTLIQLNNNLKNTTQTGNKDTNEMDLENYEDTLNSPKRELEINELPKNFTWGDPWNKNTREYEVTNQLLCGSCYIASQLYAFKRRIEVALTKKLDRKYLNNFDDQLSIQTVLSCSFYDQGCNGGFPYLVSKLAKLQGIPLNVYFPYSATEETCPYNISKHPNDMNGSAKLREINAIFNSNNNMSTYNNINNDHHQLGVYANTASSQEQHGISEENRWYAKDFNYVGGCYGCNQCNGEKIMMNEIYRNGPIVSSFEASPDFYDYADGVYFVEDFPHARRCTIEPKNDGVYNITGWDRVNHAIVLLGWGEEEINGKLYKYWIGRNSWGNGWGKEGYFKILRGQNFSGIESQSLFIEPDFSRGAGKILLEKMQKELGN

Row | SMILES | % Inhibition @ 10 uM [%]
1 | C=CCNC(=O)C1CCCN(c2cnccn2)C1 (centres unmarked) | -4.67
2 | Cc1c2cnn(CC(=O)N3CCc4ccccc4C3)c(=O)c2c(C)n1Cc1ccccc1F | -5.81
3 | Nc1ccc(S(=O)(=O)N2CC(=O)NC(=O)C2)cc1 | 1.8
4 | CN(Cc1ccccc1)S(=O)(=O)c1ccc2ncc(C(=O)NCc3cccs3)c(O)c2c1 | -7.57
5 | CCOC1=CC2=C(CC(C)(C)CC2=O)OC1N(C)C (centres unmarked) | 0.937
6 | CN(Cc1ccccc1)S(=O)(=O)c1ccc(NC(=O)c2ccccc2Br)cc1 | 28.8
7 | CCN(CC)CCNC(=O)c1ccc(CS(=O)(=O)c2ccccc2C)o1 | 5.34
8 | COc1ccc(CN2CCN(Cc3ccccc3Br)CC2)c(OC)c1 | -8.37
9 | Cc1ccc(-c2nn(C)c(=O)c3ccccc23)cc1S(=O)(=O)N1CCC(Cc2ccccc2)CC1 | 5.3
10 | CCN1CCCC1CNC(=O)Cn1cnc2c(nc3n2CCCCC3)c1=O (centres unmarked) | 3.95
11 | O=C(OCc1ccco1)c1sc2ccccc2c1Cl | -0.189
12 | COc1cc(CNC2C3CC4CC(C3)CC2C4)ccc1OCC(=O)NC(C)(C)C (centres unmarked) | 1.64
13 | NC(CCCCCC(=O)O)C1CCCCCC1 (centres unmarked) | -0.969
14 | O=C1C2C3C=CC(C3)C2C(=O)N1c1ccc2ccccc2n1 (centres unmarked) | -3.28
15 | NC1=NC(=O)CC(c2ccc(F)cc2)N1 (centres unmarked) | 0.351
16 | O=C(CSc1ccc2nnc(CCNS(=O)(=O)c3ccccc3)n2n1)N1CCCC1 | 2.22
17 | O=C(CCS(=O)(=O)c1ccc2ccccc2c1)N1CCCC1 | -4.91
18 | Cc1ccc(NCC(O)COc2ccccc2)cc1C (centres unmarked) | -0.128
19 | Cc1cccc(OCc2nn3c(Cc4ccccc4)nnc3s2)c1 | 3.38
20 | Clc1ccc(-c2nnc3ccccn23)cc1 | 1.32
21 | Cc1ccc2oc(O)cc(=O)c2c1 | -3.44
22 | Oc1ccnc2c1ccc1c(O)ccnc12 | 2.55
23 | COc1ccccc1/C=c1\sc2nc(-c3ccc(OC)c(OC)c3)nn2c1=O | 19.9
24 | COc1ccc(/C=C(/NC(=O)c2ccc(C)cc2)C(=O)N2CCCCCC2)cc1OC | -3.9
25 | CCCCN(CC)CCCNC(=O)c1ccc(CS(=O)(=O)c2c(Cl)cccc2Cl)o1 | -4.71
26 | Cc1cccc(NC2=NC(=O)/C(=C\c3ccc(O)cc3)S2)c1 | -1.98

Row | SMILES | % Inhibition @ 10 uM [%]
27 | COc1cc(C)c(C)cc1S(=O)(=O)NC1CC(C)(C)NC(C)(C)C1 | 0.24
28 | Cn1c(=O)c2c(nc(N3CCN(c4ccc([N+](=O)[O-])cc4)CC3)n2C)n(C)c1=O | 4.22
29 | CC1CCCCC1NC(=O)Cn1nc(-c2ccc(Cl)cc2)ccc1=O (centres unmarked) | 3.24
30 | COc1ccc(Nc2ccccc2Cl)c(C(=O)O)c1 | 2.49
31 | Cc1cccc(C(=O)N(C)Cc2ccccc2)c1 | -6.86
32 | Cc1ccc(NC(=O)Nc2ccc(Cl)cc2)cc1Br | -0.622
33 | Cc1n[nH]c(C)c1CCCCCCOc1ccc(Cl)cc1 | 1.35
34 | Cc1ccc(OCCCC(=O)N2CCOCC2)cc1 | -7.15
35 | CCC(=O)N1C(C(=O)NCCC2=CCCCC2)CSC12CCN(C)CC2 (centres unmarked) | -6.36
36 | C#CC(C)(C)NC(=O)CN(c1ccc(OC)cc1)S(=O)(=O)c1ccccc1 | 4.32
37 | CNC(=O)c1c(NC(=O)c2ccc(Cl)cc2)sc2c1CCC(C(C)(C)C)C2 (centres unmarked) | -3.21
38 | CC(C)C(C(=O)O)N1C(=O)C2C3CCC(C3)C2C1=O (centres unmarked) | 4.08
39 | COc1cccc(OCC(O)CN2CCN(Cc3ccccc3)CC2)c1 (centres unmarked) | -7
40 | CC(=O)c1nc2ccccc2n1Cc1ccccc1 | -1.99
41 | CC1=C(C(=O)Nc2ccccc2C)C(c2ccc(N(C)C)cc2)NC(=O)N1 (centres unmarked) | -0.564
42 | Cc1ccc(C(=O)Nc2nc(-c3cccc4ccccc34)cs2)o1 | -2.44
43 | Cn1c(=O)c2c(n3cnnc13)-c1ccccc1CC21CCCCC1 | -3.77
44 | Cc1cc(C)c2c(n1)SCC(=O)N2CCCC(=O)NC(C)c1ccccc1 (centres unmarked) | -9.91
45 | Cc1ccc(-n2ncc3c(N4CCc5ccccc5C4)ncnc32)cc1 | 3.36
46 | COc1ccc(N2C(=O)CC(N3CCN(C)CC3)C2=O)cc1 (centres unmarked) | 1.08
47 | CS(=O)(=O)C1=NSC2=NC(=O)/C(=C\c3cn(CCOc4ccccc4)c4ccccc34)C(=N)N21 | 1.85
48 | O=C(Nc1nc2ccc(Cl)cc2s1)c1cccnc1 | 2.69
49 | S=C1NC2(CCN(Cc3ccccc3)CC2)N=C1c1ccccc1 | 5.46
50 | Cc1ccc2c(c1)C(c1ccccc1)NCC(=O)N2 (centres unmarked) | -0.267
51 | O=C(Nc1ccc(F)cc1)Nc1ccc(Cl)cc1 | -0.0369
52 | O=S(=O)(NC1c2ccccc2Oc2ccccc21)c1ccc2ccccc2c1 | 10.7

Row | SMILES | % Inhibition @ 10 uM [%]
53 | COc1ccc(C(=O)N2CCCCCC2)cc1S(=O)(=O)N1CCOCC1 | 0.605
54 | CC1CCN(S(=O)(=O)c2ccc(NC(=O)c3ccccc3F)cc2)CC1 | -4.86
55 | Cc1ccc(CN(Cc2ccco2)C(=O)c2cc3ccccc3oc2=O)cc1 | 4.47
56 | COc1cccc(-c2nc3cc(Br)cnc3[nH]2)c1OC | 0.962
57 | Cc1ccc(S(=O)(=O)NC2(C(F)(F)F)C(=O)Nc3c2c(=O)[nH]c(=O)n3Cc2ccco2)cc1 (centres unmarked) | 6.64
58 | COc1ccc(/C=C/C(=O)NC(=S)Nc2ccc(S(=O)(=O)Nc3nccs3)cc2)cc1OC | -5.38
59 | COc1cc(Cl)ccc1S(=O)(=O)N1CCN(S(=O)(=O)c2ccc(Cl)cc2OC)CC1 | -0.178
60 | CCN(CC)CCN(CC)Cc1ccc(Cl)cc1 | -2.34
61 | Cc1nc2n(C)c3ccccc3n2c1C(=O)OCCN1CCCCC1 | -1.66
62 | Clc1ccc(-c2nnc(SCc3ccccc3)o2)c(Cl)c1 | -2.12
63 | COc1cc(OC)cc(C(=O)Nc2ccc(N3CCN(C(=O)c4ccccc4)CC3)cc2)c1 | 2.64
64 | COc1ccccc1-c1nnc(SCC(=O)N2CCOCC2)o1 | 0.738
65 | Cc1nc2ccc(S(=O)(=O)NC(CC(C)C)C(=O)NCCc3ccc(Cl)cc3)cc2s1 (centres unmarked) | -1.3
66 | O=c1cc2nc(-c3ccccc3)nc(SCc3ccccc3)n2[nH]1 | -8.93
67 | Fc1ccc(CNCc2cccn2-c2nnc(N3CCN(C4CCCCC4)CC3)s2)cc1 | -3.84
68 | CC(=O)Nc1ccc(NC(=O)COc2ccc(-c3ccccc3)cc2)cc1 | 6.15
69 | N#Cc1c(NC(=O)C2CCCO2)sc2c1CCCCC2 (centres unmarked) | 5.05
70 | N#CC1=C(N)N2C(=O)c3ccccc3SC2=C(C#N)C1c1c(F)cccc1Cl (centres unmarked) | 3.37
71 | O=C(NCc1nnc(SCC(=O)N2CCC(Cc3ccccc3)CC2)o1)c1ccccc1F | -5.27
72 | N#CC1=C(N)OC2=C(C(=O)CC(c3ccccc3)C2)C1c1ccc(C(F)(F)F)cc1 (centres unmarked) | 1.41
73 | C=CCNc1nc(Nc2cccc([N+](=O)[O-])c2)nc(OC(C(F)(F)F)C(F)(F)F)n1 | 1.7
74 | CC(C)CS(=O)(=O)c1oc(-c2cccs2)nc1S(=O)(=O)c1ccc(F)cc1 | 3.74
75 | O=C(CN(Cc1ccccc1)Cc1ccccc1)NC12CC3CC(CC(C3)C1)C2 | 8.31
76 | CCCNC(=O)c1c(C)nn(-c2ccccc2)c1-n1cccc1 | -1.58
77 | Cc1ccc(CNC(=O)c2c(-c3ccccc3Cl)noc2C)cc1 | -2.65
78 | CC(C)C[C@H](NC(=O)OCc1ccc[n+](C)c1)C(=O)NCC#N | -9.37

Row | SMILES | % Inhibition @ 10 uM [%]
79 | O=S(=O)(c1ccc(Cl)cc1)N1CCn2c1nc1ccccc12 | -1.43
80 | Cc1cc(C(=O)Nc2sc3c(c2C(N)=O)CCCCC3)c(C)o1 | 12.2
81 | N#C/C(=C\c1ccc(-c2ccc(F)cc2)o1)c1nn(-c2ccccc2)c(N)c1C#N | 4.42
82 | CC(=O)c1c(C)[nH]c(C(=O)N2CCN(c3ccccn3)CC2)c1C | -4.14
83 | O=C(c1sccc1-n1cccc1)N1CCCC1 | 1.72
84 | Clc1cccc(CCNCc2ccncc2)c1 | -1.59
85 | CC(C)C(=O)N1CCN(c2ccc(NC(=O)c3ccccc3F)cc2Cl)CC1 | -3.43
86 | Cc1ccccc1OC(C)C(=O)Nc1cccc(Cl)c1 (centres unmarked) | -4.02
87 | CC1CC(=O)C2=C(C1)OC(N)=C(C#N)C2c1ccc(F)c(Br)c1 (centres unmarked) | 1.41
88 | CC1CCCC(C)N1CCCNC(=O)Cn1ncc2c3ccccc3nc-2c1O (centres unmarked) | -1.46
89 | COCCNC(=O)C1CCCN(c2nn3c(=O)cc(C)nc3s2)C1 (centres unmarked) | -5.63
90 | COc1ccc(C2=N/C(=C\c3cccs3)C(=O)O2)c(Cl)c1 | -2.18
91 | Cc1nnc2c3ccccc3nc(N3CCC(Cc4ccccc4)CC3)n12 | 1.4
92 | COc1ccccc1/C=C/CN1CCSCC1 | 1.26
93 | Cc1cccc(CN2CCN(C(=O)c3ccc(F)cc3)CC2)c1 | -1.51
94 | Cc1ccc(OCC(=O)N(C)C2(C)CCS(=O)(=O)C2)cc1 (centres unmarked) | -2.21
95 | Cn1c(=O)c2c(nc3n(CC(O)c4ccccc4)c(C45CC6CC(CC(C6)C4)C5)cn23)n(C)c1=O (centres unmarked) | 0.0974
96 | Cc1ccc(S(=O)(=O)NCC2OCCc3ccccc32)cc1 (centres unmarked) | -1.19
97 | C=CCNC(=O)c1cc(-c2ccc(O)cc2)on1 | 3.89
98 | c1ccc2c3c([nH]c2c1)CN(Cc1ccoc1)CC3 | -8.13
99 | Cc1cc(Cl)ccc1OCCCC(=O)Nc1nc(C)c(C)s1 | 1.17
100 | O=C(NCCSc1ccccc1)c1ccc(CN2CCc3ccccc3C2)cc1 | -1.81
101 | N#C/C(=C/C=C/c1ccccc1)c1nc(-c2ccc(-c3ccccc3)cc2)cs1 | 3.74

Reference: paper PMC6919601, “Identification of Plasmodium dipeptidyl aminopeptidase allosteric inhibitors by high throughput screening” (PLoS ONE, 2019)
